Reference: the RNAGym collection of RNA variant scans (doi:10.1073/pnas.2313332121)
This sample is rich in variants without activity.

B1: TPR 5TU (parent)
chain: GGAUCUUCUCGAUCUAACAAAAAAGACAAAUCUGCCACAAAGCUUGAGAGCAUCUUCGGAUGCAGAGGCGGCAGCCUUCGGUGGCGCGAUAGCGCCAACGUUCUCAACUAUGACACGCAAAACGCGUGCUCCGUUGAAUGGAGUUUAUCAUG

Variants of: B1
Test: polymerase ribozyme fitness, log enrichment relative to wild type (log ratio); higher = more active; in vitro selection for triplet polymerase activity
How it was run: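 Both subunits of a heterodimeric triplet polymerase ribozyme were given their own mutant library, built by PCR and transcribed. Each library was annealed with a biotinylated primer, the partner subunit and triplets, incubated frozen at −7 °C, and its extended constructs gel-excised, captured on streptavidin beads and amplified by RT-PCR, all in one round done in triplicate. Fitness is the logarithm of genotype enrichment relative to wild-type enrichment, with replicates averaged by inverse-variance weighting. That logarithm is base 2, and Illumina-sequenced genotypes needed ≥10 input reads and ≥1 read per output.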

Variant | polymerase ribozyme fitness (log ratio)
C43U G68A G86U | ≤ -4.2
C43G U45G G50A C118U U145A | ≤ -4.2
A41C C85U A122U G126C | -0.655
A41U C54A G59A C85G | -3.6
G42A G88C | ≤ -4.2
G42A A52C U148G | ≤ -4.2
C43U G58C C95A U102C C103G C105G A110U | ≤ -4.2
A41G G42C A47C C57U G84U A89G C93A C96G U101C | ≤ -4.2
G42C U78G C85U C99G A121U C132G U139C | ≤ -4.2
C43U C85U | ≤ -4.2
G42A C69U U90G C95G | ≤ -4.2
G42U C103A U104A A107U | ≤ -4.2
G42U C54U C95G | ≤ -4.2
C43U G46A A66U C76G G83A A110U | ≤ -4.2
G42U A47U U56G G59U G68C C125A | ≤ -4.2
A41G U53G | -0.77
C43A G59C C95A C103G C123U | ≤ -4.2
A41C U56A A91G A97G A142U | -3.86
A41C C51A U56A G58C U82C C87A G136U | ≤ -4.2
C43A U53A U55A G74A C76A G88U A142G | ≤ -4.2
C43U C57U | -3.79

Variant | polymerase ribozyme fitness (log ratio)
C43A A47C G94C C108U A147G C149U | ≤ -4.2
A41C U55G C95A A113G C129A | ≤ -4.2
A41U C93A | -3.19
A41C C57G C87A G143C | ≤ -4.2
G42U G68A A91C | ≤ -4.2
G42C U77A C87U U102G | ≤ -4.2
A41G C43A G62C C63A A66G C85A A107C C116A C125G | ≤ -4.2
G42A A52G U56A G70A A89U A98U C99U G141A | ≤ -4.2
A41U G68C A91U U102C | ≤ -4.2
A41U C63U U102C | -3.6
G42C A60G G92U C105G U111C A115C G133C U134C | ≤ -4.2
A41U G124A | -1.29
A41U U56A G74A C76U G86U G133C | ≤ -4.2
G42A A49G A64G A107U C114U | ≤ -4.2
A41U U53A C75G C87G A89U | ≤ -4.2
A41C U53G | -3.43
A41C U44A G81U G86C C96A | ≤ -4.2
C43A G68A C95A A98U C125G | ≤ -4.2
G42C C93G | ≤ -4.2
G42C G88A A89C C93G A97G C103A A110C | ≤ -4.2
G42A U53G A64U G67C C76A G86C C93G C95U | ≤ -4.2

Variant | polymerase ribozyme fitness (log ratio)
A41C G80A C85G A106C G141U | ≤ -4.2
C43G U53A G94C C96U A98C C114G A137C | ≤ -4.2
G42U A91G G128U G133A | ≤ -4.2
C43U G70A C93A C116U A119G G140U | ≤ -4.2
G42C G50A A113C U139G U145C U148C | ≤ -4.2
C43U U56A C72A C85A | ≤ -4.2
A41C C43U C51G C96G A107U A120C | ≤ -4.2
A41G C75G G92C U146A | ≤ -4.2
A41U U82A C114G A122U G126A G133A | ≤ -4.2
A41U C54A C79U G88C U148C | ≤ -4.2
A41U G84A C96U A107C A147C | ≤ -4.2
A41C U53A G59U C76A A97U G126A | ≤ -4.2
A41C C69G C76G C85G U134A A150U | ≤ -4.2
G42A U44G A49C C95U | ≤ -4.2
C43U G50C A66U G136U | ≤ -4.2
G42C G50C C85U C96U C116U | ≤ -4.2
A41U G46U A52U | -4.03
G42U A122U | ≤ -4.2
C43U C54A C93A U134A | ≤ -4.2
A41C U45A G67A G94U A98G C123A G133U G143A | ≤ -4.2
A41U G46C G65A C79U G80A G88C G92A A115C | ≤ -4.2

Variant | polymerase ribozyme fitness (log ratio)
A41U G67C C85A C118G | ≤ -4.2
C43A A73G C93G C96U U101C G126U | ≤ -4.2
C43U C54U U56G U78C C85G C93G G133A G136U G140U | ≤ -4.2
C43U A91U C95G A98U A107U G141A | ≤ -4.2
A41C C87A U144G | ≤ -4.2
C43U G59A A110G | ≤ -4.2
A41C U56A G59C G74C C79U C85A U102G U109G A120G G124A U148C | ≤ -4.2
A41U G50A C75G C132A | ≤ -4.2
G42C G50U G84A C99A | ≤ -4.2
A41C G83A C116A | -0.205
A41C C93G | -3.5
G42C C43G G88U C123A | ≤ -4.2
A41G C76U G86A G117A | -0.646
A41U A52G U102G U145C | ≤ -4.2
G42U C95A | ≤ -4.2
G42C U56G G81A G84A C123A G126A | ≤ -4.2
A41C U55C C85G C108U G126A | ≤ -4.2
A41C C43U G83C C116U C131U A142C | ≤ -4.2
A41C G94A U104G A113C C116G | ≤ -4.2
G42A G86A C118A | ≤ -4.2
